Test results published in US20170051034A1 (Novo Nordisk A/S, priority 2010, published 2017).
At least one read-out could not be matched to a standard name with certainty. At least one compound was matched to its structure with a doubt left. Numbered stars: 1 amine (or outer) side, 2 acyl side, 3 side chain; on linkers, the order of the positions; unused ones are H or OH. Side chains are listed from the residue outwards. Peptide text beside a SMILES is read from it. * marks the point of attachment. Palmitoyl(16-(5-tetrazolyl)) = O=C(CCCCCCCCCCCCCCCc1nnn[nH]1)*; C18 diacid = O=C(O)CCCCCCCCCCCCCCCCC(=O)*; γGlu = O=C(O)[C@H](CCC(=O)[*:2])N[*:1]; AEEA = NCCOCCOCC(=O)O

Assay: ThT fibrillation assay (lag time and recovery)
Type: physicochemical
Details: Table 2
Description: This has traditionally been measured by visual inspection of the sample. However, that kind of measurement is very subjective and depending on the observer. Therefore, the application of a small molecule indicator probe is much more advantageous. […] Enzymol.
The constant t0 is the time needed to reach 50% of maximum fluorescence. The two important parameters describing fibril formation are the lag-time calculated by t0−2τ and the apparent rate constant kapp 1/τ.
Samples were prepared freshly before each assay. […] The pH of the sample was adjusted to the desired value using appropriate amounts of concentrated NaOH and HCl. Thioflavin T was added to the samples from a stock solution in H2O to a final concentration of 1 μM.
The plate was sealed with Scotch Pad (Qiagen).
Each run was initiated by incubating the plate at the assay temperature for 10 min. The plate was measured every 20 minutes for a desired period of time. Between each measurement, the plate was shaken and heated as described.
The supernatant was filtered through a 0.22 μm filter and an aliquot was transferred to a HPLC vial.
The measurement points were saved in Microsoft Excel format for further processing and curve drawing and fitting was performed using GraphPad Prism. […] The data set may be fitted to Eq. (1).

Going from `CC(C)C[C@H](NC(=O)[C@H](Cc1ccc(O)cc1)NC(=O)[C@H](CCCCN)NC(=O)[C@H](CO)NC(=O)[C@H](Cc1ccc(O)cc1)NC(=O)[C@H](CC(=O)O)NC(=O)[C@H](CO)NC(=O)[C@@H](NC(=O)[C@H](Cc1ccccc1)NC(=O)[C@@H](NC(=O)CNC(=O)[C@H](CCC(N)=O)NC(=O)[C@H](CO)NC(=O)[C@@H](N)Cc1c[nH]cn1)[C@@H](C)O)[C@@H](C)O)C(=O)N[C@@H](CC(=O)O)C(=O)N[C@@H](CO)C(=O)N[C@@H](CCCCN)C(=O)N[C@@H](CCCCN)C(=O)N[C@@H](C)C(=O)N[C@@H](CCC(N)=O)C(=O)N[C@@H](CCC(=O)O)C(=O)N[C@@H](Cc1ccccc1)C(=O)N[C@H](C(=O)N[C@@H](CCCCNC(=O)COCCOCCNC(=O)COCCOCCNC(=O)[C@H](CCC(=O)O)NC(=O)CCCCCCCCCCCCCCCCC(=O)O)C(=O)N[C@@H](Cc1c[nH]c2ccccc12)C(=O)N[C@@H](CC(C)C)C(=O)N[C@@H](CC(C)C)C(=O)N[C@@H](CO)C(=O)N[C@H](C(=O)O)[C@@H](C)O)C(C)C` [Example 72, N^ε24-[2-[2-[2-[[2-[2-[2-[[(2S)-4-carboxy-2-(17-carboxyheptadecanoylamino)butanoyl]amino]ethoxy]ethoxy]acetyl]amino]ethoxy]ethoxy]acetyl]-[Lys17,Lys18,Glu21,Lys24,Leu27,Ser28]-Glucagon] (H-HSQGTFTSDYSKYLDSKKAQEFVK([AEEA-AEEA-Glu-C18 diacid])WLLST-OH) to `CC(C)C[C@H](NC(=O)[C@H](Cc1ccc(O)cc1)NC(=O)[C@H](CCCCN)NC(=O)[C@H](CO)NC(=O)[C@H](Cc1ccc(O)cc1)NC(=O)[C@H](CC(=O)O)NC(=O)[C@H](CO)NC(=O)[C@@H](NC(=O)[C@H](Cc1ccccc1)NC(=O)[C@@H](NC(=O)CNC(=O)[C@H](CCC(N)=O)NC(=O)[C@H](CO)NC(=O)[C@@H](N)Cc1c[nH]cn1)[C@@H](C)O)[C@@H](C)O)C(=O)N[C@@H](CC(=O)O)C(=O)N[C@@H](CO)C(=O)N[C@@H](CCCCN)C(=O)N[C@@H](CCCCN)C(=O)N[C@@H](C)C(=O)N[C@@H](CCC(N)=O)C(=O)N[C@@H](CCC(=O)O)C(=O)N[C@@H](Cc1ccccc1)C(=O)N[C@H](C(=O)N[C@@H](CCCCNC(=O)COCCOCCNC(=O)COCCOCCNC(=O)CC[C@H](NC(=O)CCCCCCCCCCCCCCCCC(=O)O)C(=O)O)C(=O)N[C@@H](Cc1c[nH]c2ccccc12)C(=O)N[C@@H](CC(C)C)C(=O)N[C@@H](CC(C)C)C(=O)N[C@@H](CC(=O)O)C(=O)N[C@H](C(=O)O)[C@@H](C)O)C(C)C` [Example 67, N^ε24-[2-[2-[2-[[2-[2-[2-[[(4S)-4-carboxy-4-(17-carboxyheptadecanoylamino)butanoyl]amino]ethoxy]ethoxy]acetyl]amino]ethoxy]ethoxy]acetyl]-[Lys^17,Lys^18,Glu^21,Lys^24,Leu^27,Asp^28]-Glucagon] (H-HSQGTFTSDYSKYLDSKKAQEFVK([AEEA-AEEA-γGlu-C18 diacid])WLLDT-OH), the “ThT assay [Recovery]” value falls from 100% to 98%.

Compared with `CC(C)C[C@H](NC(=O)[C@H](CC(C)C)NC(=O)[C@H](Cc1c[nH]c2ccccc12)NC(=O)[C@H](CCC(N)=O)NC(=O)[C@@H](NC(=O)[C@H](Cc1ccccc1)NC(=O)[C@H](CCC(=O)O)NC(=O)[C@H](CCC(N)=O)NC(=O)[C@H](C)NC(=O)[C@H](CCCCN)NC(=O)[C@H](CCCCN)NC(=O)[C@H](CO)NC(=O)[C@H](CC(=O)O)NC(=O)[C@H](CC(C)C)NC(=O)[C@H](Cc1ccc(O)cc1)NC(=O)[C@H](CCCCN)NC(=O)[C@H](CO)NC(=O)[C@H](Cc1ccc(O)cc1)NC(=O)[C@H](CC(=O)O)NC(=O)[C@H](CO)NC(=O)[C@@H](NC(=O)[C@H](Cc1ccccc1)NC(=O)[C@@H](NC(=O)CNC(=O)[C@H](CCC(N)=O)NC(=O)[C@H](CO)NC(=O)[C@@H](N)Cc1c[nH]cn1)[C@@H](C)O)[C@@H](C)O)C(C)C)C(=O)N[C@@H](CC(N)=O)C(=O)N[C@@H](CCCCNC(=O)COCCOCCNC(=O)COCCOCCNC(=O)CC[C@H](NC(=O)CCCCCCCCCCCCCCCCC(=O)O)C(=O)O)C(=O)O` [Example 68, N^ε29-[2-[2-[2-[[2-[2-[2-[[(4S)-4-carboxy-4-(17-carboxyheptadecanoylamino)butanoyl]amino]ethoxy]ethoxy]acetyl]amino]ethoxy]ethoxy]acetyl]-[Lys^17,Lys^18,Glu^21,Leu^27,Lys^29]-Glucagon] (H-HSQGTFTSDYSKYLDSKKAQEFVQWLLNK([AEEA-AEEA-γGlu-C18 diacid])-OH), `CC(C)C[C@H](NC(=O)[C@H](Cc1ccc(O)cc1)NC(=O)[C@H](CCCCN)NC(=O)[C@H](CO)NC(=O)[C@H](Cc1ccc(O)cc1)NC(=O)[C@H](CC(=O)O)NC(=O)[C@H](CO)NC(=O)[C@@H](NC(=O)[C@H](Cc1ccccc1)NC(=O)[C@@H](NC(=O)CNC(=O)[C@H](CCC(N)=O)NC(=O)[C@H](CO)NC(=O)[C@@H](N)Cc1c[nH]cn1)[C@@H](C)O)[C@@H](C)O)C(=O)N[C@@H](CC(=O)O)C(=O)N[C@@H](CO)C(=O)N[C@@H](CCCCN)C(=O)N[C@@H](CCCCN)C(=O)N[C@@H](C)C(=O)N[C@@H](CCC(N)=O)C(=O)N[C@@H](CCC(=O)O)C(=O)N[C@@H](Cc1ccccc1)C(=O)N[C@H](C(=O)N[C@@H](CCCCNC(=O)COCCOCCNC(=O)COCCOCCNC(=O)CC[C@H](NC(=O)CCCCCCCCCCCCCCCc1nnn[nH]1)C(=O)O)C(=O)N[C@@H](Cc1c[nH]c2ccccc12)C(=O)N[C@@H](CC(C)C)C(=O)N[C@@H](CC(C)C)C(=O)N[C@@H](CO)C(=O)N[C@H](C(=O)O)[C@@H](C)O)C(C)C` [Example 70, N^ε24-[2-[2-[2-[[2-[2-[2-[[(4S)-4-carboxy-4-[16-(1H-tetrazol-5-yl)hexadecanoylamino]butanoyl]amino]ethoxy]ethoxy]acetyl]amino]ethoxy]ethoxy]acetyl]-[Lys^17,Lys^18,Glu^21,Lys^24,Leu^27,Ser^28]-Glucagon] (H-HSQGTFTSDYSKYLDSKKAQEFVK([AEEA-AEEA-γGlu-Palmitoyl(16-(5-tetrazolyl))])WLLST-OH) is higher in “ThT assay [Recovery]” value: 19% for the first, 100% for the second.

With `CC(C)C[C@H](NC(=O)[C@H](Cc1ccc(O)cc1)NC(=O)[C@H](CCCCN)NC(=O)[C@H](CO)NC(=O)[C@H](Cc1ccc(O)cc1)NC(=O)[C@H](CC(=O)O)NC(=O)[C@H](CO)NC(=O)[C@@H](NC(=O)[C@H](Cc1ccccc1)NC(=O)[C@@H](NC(=O)CNC(=O)[C@H](CCC(N)=O)NC(=O)[C@H](CO)NC(=O)[C@@H](N)Cc1c[nH]cn1)[C@@H](C)O)[C@@H](C)O)C(=O)N[C@@H](CC(=O)O)C(=O)N[C@@H](CO)C(=O)N[C@@H](CCCCN)C(=O)N[C@@H](CCCCN)C(=O)N[C@@H](C)C(=O)N[C@@H](CCC(N)=O)C(=O)N[C@@H](CCC(=O)O)C(=O)N[C@@H](Cc1ccccc1)C(=O)N[C@H](C(=O)N[C@@H](CCC(N)=O)C(=O)N[C@@H](Cc1c[nH]c2ccccc12)C(=O)N[C@@H](CC(C)C)C(=O)N[C@@H](CC(C)C)C(=O)N[C@@H](CC(N)=O)C(=O)N[C@H](C(=O)O)[C@@H](C)O)C(C)C` [[K^17, K^18, E^21, L^27] Glucagon, H—HSQGTFTSDYSKYLDSKKAQEFVQWLLNT—OH, reference compound] (H-HSQGTFTSDYSKYLDSKKAQEFVQWLLNT-OH) the “ThT assay [Recovery]” value was 0%.

Compared with `CC(C)C[C@H](NC(=O)[C@H](CC(C)C)NC(=O)[C@H](Cc1c[nH]c2ccccc12)NC(=O)[C@H](CCC(N)=O)NC(=O)[C@@H](NC(=O)[C@H](Cc1ccccc1)NC(=O)[C@H](CCC(=O)O)NC(=O)[C@H](CCC(N)=O)NC(=O)[C@H](C)NC(=O)[C@H](CCCCN)NC(=O)[C@H](CCCCN)NC(=O)[C@H](CO)NC(=O)[C@H](CC(=O)O)NC(=O)[C@H](CC(C)C)NC(=O)[C@H](Cc1ccc(O)cc1)NC(=O)[C@H](CCCCN)NC(=O)[C@H](CO)NC(=O)[C@H](Cc1ccc(O)cc1)NC(=O)[C@H](CC(=O)O)NC(=O)[C@H](CO)NC(=O)[C@@H](NC(=O)[C@H](Cc1ccccc1)NC(=O)[C@@H](NC(=O)CNC(=O)[C@H](CCC(N)=O)NC(=O)[C@H](CO)NC(=O)[C@@H](N)Cc1c[nH]cn1)[C@@H](C)O)[C@@H](C)O)C(C)C)C(=O)N[C@@H](CC(N)=O)C(=O)N[C@@H](CCCCNC(=O)COCCOCCNC(=O)COCCOCCNC(=O)CC[C@H](NC(=O)CCCCCCCCCCCCCCCCC(=O)O)C(=O)O)C(=O)O` [Example 68, N^ε29-[2-[2-[2-[[2-[2-[2-[[(4S)-4-carboxy-4-(17-carboxyheptadecanoylamino)butanoyl]amino]ethoxy]ethoxy]acetyl]amino]ethoxy]ethoxy]acetyl]-[Lys^17,Lys^18,Glu^21,Leu^27,Lys^29]-Glucagon] (H-HSQGTFTSDYSKYLDSKKAQEFVQWLLNK([AEEA-AEEA-γGlu-C18 diacid])-OH), `CC(C)C[C@H](NC(=O)[C@H](Cc1ccc(O)cc1)NC(=O)[C@H](CCCCN)NC(=O)[C@H](CO)NC(=O)[C@H](Cc1ccc(O)cc1)NC(=O)[C@H](CC(=O)O)NC(=O)[C@H](CO)NC(=O)[C@@H](NC(=O)[C@H](Cc1ccccc1)NC(=O)[C@@H](NC(=O)CNC(=O)[C@H](CCC(N)=O)NC(=O)[C@H](CO)NC(=O)[C@@H](N)Cc1c[nH]cn1)[C@@H](C)O)[C@@H](C)O)C(=O)N[C@@H](CC(=O)O)C(=O)N[C@@H](CO)C(=O)N[C@@H](CCCCN)C(=O)N[C@@H](CCCCN)C(=O)N[C@@H](C)C(=O)N[C@@H](CCC(N)=O)C(=O)N[C@@H](CCC(=O)O)C(=O)N[C@@H](Cc1ccccc1)C(=O)N[C@H](C(=O)N[C@@H](CCCCNC(=O)COCCOCCNC(=O)COCCOCCNC(=O)CC[C@H](NC(=O)CCCCCCCCCCCCCCCCC(=O)O)C(=O)O)C(=O)N[C@@H](Cc1c[nH]c2ccccc12)C(=O)N[C@@H](CC(C)C)C(=O)N[C@@H](CC(C)C)C(=O)N[C@@H](CC(=O)O)C(=O)N[C@H](C(=O)O)[C@@H](C)O)C(C)C` [Example 67, N^ε24-[2-[2-[2-[[2-[2-[2-[[(4S)-4-carboxy-4-(17-carboxyheptadecanoylamino)butanoyl]amino]ethoxy]ethoxy]acetyl]amino]ethoxy]ethoxy]acetyl]-[Lys^17,Lys^18,Glu^21,Lys^24,Leu^27,Asp^28]-Glucagon] (H-HSQGTFTSDYSKYLDSKKAQEFVK([AEEA-AEEA-γGlu-C18 diacid])WLLDT-OH) is 4.4-fold higher in “ThT assay [Lag time]” value: 5.7 h for the first, 25 h for the second.
